# Reference: PMC6212790
# The list shows a part of the results. At the low end of the ranking the order means little.
# Biological target: T1, GST-Rok-C97-191 (UniProt O34857)
# T1 sequence: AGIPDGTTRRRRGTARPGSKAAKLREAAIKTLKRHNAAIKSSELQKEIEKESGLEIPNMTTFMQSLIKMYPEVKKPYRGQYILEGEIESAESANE
# Test: protein binding microarray;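 note: rank score from −0.5 (least bound) to 0.5 (best bound)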
# Conditions: Rok is a gene silencer of Bacillus subtilis; high values mean tight binding; most listed sequences are background and not binding sites; double strand, one strand shown
row,Sequence,binding signal
1,ATGCGCGG,-0.168 E-score
2,ATGACCGA,0.146 E-score
3,AAGTATGG,0.128 E-score
4,GAACTTCC,-0.145 E-score
5,CGTCGCTC,-0.161 E-score
6,CAACAATA,0.077 E-score
7,ACTTGTAC,0.208 E-score
8,CATCTAGG,-0.0436 E-score
9,AGTACGTC,-0.083 E-score
10,TAGAACAA,0.216 E-score
11,ATGGAGTG,0.0412 E-score
12,GCGTGTGA,-0.00575 E-score
13,AACCCCAC,-0.2 E-score
14,CCGGACGA,-0.115 E-score
15,CAATCAGC,-0.197 E-score
16,ACCATGAA,-0.000363 E-score
17,GGTTCCAA,-0.217 E-score
18,TCAAACGA,-0.00908 E-score
19,GGGTGAAC,0.0811 E-score
20,CGATCCCC,-0.302 E-score
21,AAGCATTG,0.0589 E-score
22,AAGGTCCA,-0.107 E-score
23,CTTGAATA,-0.0952 E-score
24,GTGGCTCA,-0.084 E-score

row,Sequence,binding signal
1,CAGTGAAA,-0.0948 E-score
2,CGTCCAAA,-0.158 E-score
3,AATGGCAA,0.039 E-score
4,CTAAAGCC,-0.127 E-score
5,GATGATAA,0.0651 E-score
6,GTTAAGAA,0.0875 E-score
7,ATCTCTCG,-0.0528 E-score
8,ATGTGGGG,-0.0516 E-score
9,CGTTTTAG,0.0423 E-score
10,CTCAGTGA,-0.0652 E-score
11,AGGGAATA,-0.0692 E-score
12,CACTCATC,-0.0404 E-score
13,CAGGGTCA,-0.0737 E-score
14,CCTACCTA,0.166 E-score
15,TACAGAGA,0.102 E-score
16,CAATGAGG,-0.135 E-score
17,ACCTCGCA,0.0431 E-score
18,CGCTGTAG,0.0107 E-score
19,CGGGTATC,0.00348 E-score
20,TCCACTAA,0.126 E-score
21,GCTGCTAC,0.0824 E-score
22,AGTGGGAG,-0.139 E-score
23,CGGTCAGC,-0.297 E-score
24,GTGTATTA,0.11 E-score

row,Sequence,binding signal
1,AGTCCTGA,-0.163 E-score
2,CATTATAC,0.177 E-score
3,AGAGTGAT,-0.00889 E-score
4,AGACACCC,0.0829 E-score
5,GCTGGAAA,-0.0362 E-score
6,ATGGCTGG,-0.117 E-score
7,AGTCGGCG,-0.226 E-score
8,CTGTCTCC,-0.29 E-score
9,ACGTACCG,-0.062 E-score
10,AAAGGCCC,-0.199 E-score
11,CGAACTTC,0.105 E-score
12,ACCTTTTA,0.118 E-score
13,AGAACGTC,0.0063 E-score
14,CAACCAAA,-0.0777 E-score
15,AACCGTCT,-0.00298 E-score
16,AATTGTGC,-0.0187 E-score
17,AACCAGAT,0.0122 E-score
18,ATTAATAG,0.261 E-score
19,GATGCGCA,-0.00409 E-score
20,ATTCGTGG,-0.106 E-score
21,CACAACTA,0.199 E-score
22,ATGTTTCG,0.143 E-score
23,CTAGGATA,0.144 E-score
24,AGAATCTC,0.0267 E-score

row,Sequence,binding signal
1,GATGAATC,-0.0753 E-score
2,ACGAAAGA,0.0386 E-score
3,GGGTTACC,-0.178 E-score
4,AGTATCAG,-0.0283 E-score
5,GATTCGGA,0.106 E-score
6,AGAATACC,-0.0379 E-score
7,AGCTTTCC,-0.077 E-score
8,AATACCTA,0.27 E-score
9,AGCCCAAC,-0.251 E-score
10,AAGATCCT,0.0236 E-score
11,GAACGCTC,-0.152 E-score
12,CCTGACCA,-0.111 E-score
13,ATGCGACA,-0.166 E-score
14,AAGCCAAG,-0.0632 E-score
15,CATGCGGG,-0.144 E-score
16,TCTGCGCA,-0.0307 E-score
17,CGGTGCAA,0.0152 E-score
18,AGTGGGGG,-0.213 E-score
19,TACATCGA,0.231 E-score
20,GAGCCAGA,-0.149 E-score
21,CAACTCTA,0.127 E-score
22,CGGTTATC,-0.0737 E-score
